Among all 45,000 compounds or so, about 200 (0.44%) were called active. About 7% were inconclusive and are not listed. The call rests on the fitted dose curve; in most records, active means well fitted activation curve with a large enough effect; inconclusive means small, poorly fitted or top-dose-only effect; inactive means no such curve, though single readings can be large or run the other way. The list shows a part of the results.
Assay: qHTS of TDP-43 Inhibitors: NCGC Sytravon Library Screen; further: 0% is about no effect; nearly all actives have a fitted effect of over 55% in size
Conditions: yeast TDP-43 toxicity rescue, BacTiter-Glo growth, 24 h; series mostly up to 46.1 µM; growth rescue (activation): at the top concentration
How it was run: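 TDP-43-expressing yeast, pregrown in raffinose, seeded at OD600 0.02 in galactose medium with compound for 24 hr at 30 deg C. Growth read by BacTiter-Glo luminescence, so rescue of toxicity appears as activation.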

| SMILES | growth rescue (activation) |
| --- | --- |
| CC1Cc2ccccc2N1Cc1cccc([N+](=O)[O-])c1 (stereo unspecified) | inactive: 27.1% |
| Cc1ccc(CN(C(=O)c2csnn2)C(C(=O)NC2CCCC2)c2cccnc2)cc1 (stereo unspecified) | inactive: 11.2% |
| Cc1ccc(NC(=O)COC(=O)c2ccc(C)c(S(=O)(=O)N3CCOCC3)c2)cc1 | inactive: 26% |
| O=C1CN(S(=O)(=O)c2ccc([N+](=O)[O-])cc2)CC(=O)N1 | inactive: 5.69% |
| NS(=O)(=O)c1cccc(NC(=S)NCc2ccccc2)c1 | inactive: 8.98% |
| CNc1cncc(-c2cnn(CC(C)C)c2)n1 | inactive: 20.5% |
| Cc1ccc(CN(Cc2ccco2)S(=O)(=O)c2ccc(S(=O)(=O)NCC3CCCO3)cc2)cc1 (stereo unspecified) | inactive: 26.5% |
| COc1ccc(C2=CSC3=NCCN23)cc1 | inactive: 9.36% |
| O=C(O)CCCC(=O)Nc1nc(-c2ccc(F)cc2)cs1 | inactive: -2.92% |
| Nc1ccc(S(=O)(=O)NC2=NCCCCC2)cc1 | inactive: 24.9% |
| C[N+]1(C2CCC3CCCC2C3O)CCCCC1 (stereo unspecified) | inactive: 7.1% |
| N/C(=N/O)C(c1ccccc1)c1ccccc1 | inactive: 17.5% |
| Cc1cccc2[nH]c(CN(C)C(=O)C3CCC(=O)N(CCc4ccccc4)C3)nc12 (stereo unspecified) | inactive: -20.9% |
| C[n+]1cc(-c2ccccc2)oc1-c1ccccc1 | inactive: 13.7% |
| O=[N+]([O-])c1ccc2[nH]c(O)c(N=NC3CCS(=O)(=O)C3)c2c1 (stereo unspecified) | inactive: 9.27% |
| CCCN(CCC)S(=O)(=O)c1ccc(C(=O)Nc2nnc(-c3cccc(OC)c3)o2)cc1 | inactive: 7.02% |
| CCCNC(=O)C1(C)CCN(C(=O)c2cccc(C#N)c2)C1 (stereo unspecified) | inactive: 7.23% |
| O=C(CN(Cc1ccccc1Cl)C(=O)c1csnn1)NCc1ccc2c(c1)OCO2 | inactive: -12.5% |
| Cc1cccc(C(=O)OCC(=O)N2CC(C)OC(C)C2)c1C (stereo unspecified) | inactive: -12.8% |
| O=C(NC1CCS(=O)(=O)C1)/C(=C\c1ccco1)NC(=O)c1ccccc1 (stereo unspecified) | inactive: -2.02% |
| O=C(Nc1cccc(S(=O)(=O)c2cccc(NC(=O)c3ccco3)c2)c1)c1ccco1 | inactive: 14.5% |
| O=C(CN1CCCCCC1)Nc1cc([N+](=O)[O-])ccc1Cl | inactive: 19.9% |

| SMILES | growth rescue (activation) |
| --- | --- |
| Cc1cccc(N(C(=O)c2ccco2)C(C(=O)NC2CCCC2)c2cccnc2)c1C (stereo unspecified) | inactive: -0.336% |
| O=C(CCS(=O)(=O)c1ccc(Br)cc1)Nc1ccc(Br)cc1F | inactive: 17.1% |
| O=C1CC(N2CCN(c3ccc(O)cc3)CC2)C(=O)N1c1ccc2c(c1)OCO2 (stereo unspecified) | inactive: 5.28% |
| CCOC(=O)N1CCN(S(=O)(=O)c2cc(-c3nn4c(C)nnc4c4ccccc34)ccc2C)CC1 | inactive: 10.3% |
| COc1ccc(/C=C/C(=O)NC(=S)Nc2ccc(S(=O)(=O)Nc3cc(OC)ncn3)cc2)cc1 | inactive: 7.02% |
| CCOc1ccc(NC(=O)N2CCCC2C(=O)NCC2CCCO2)cc1 (stereo unspecified) | inactive: -11.7% |
| COc1ccc(OC)c(C(O)c2ncc(-c3ccc(C(F)(F)F)cc3)[nH]2)c1 (stereo unspecified) | inactive: 3.58% |
| Cc1cc(=O)[nH]c(SCC(=O)NCc2ccc3c(c2)OCO3)n1 | inactive: -25.9% |
| O=C(Nc1ccc(O)cc1)c1cc2n(n1)C(C(F)(F)F)CC(c1ccco1)N2 (stereo unspecified) | inactive: 9.03% |
| COc1ccccc1/C=N/OCC(=O)NCc1ccc2c(c1)OCO2 | inactive: 8.27% |
| CC(=O)c1ccc(N2CCN(C(=O)Nc3cccc(F)c3)CC2)cc1 | inactive: 13.6% |
| Cc1ccc(C(=O)N/N=C\c2ccc(-c3ccc([N+](=O)[O-])cc3)o2)cn1 | inactive: -2.21% |
| CC(=O)N1N=C(c2ccc(Cl)cc2)CC1c1ccco1 (stereo unspecified) | inactive: 12.2% |
| COc1ccc(S(=O)(=O)Nc2nc3ccccc3nc2NCC2CCCO2)cc1 (stereo unspecified) | inactive: 20.1% |
| CCc1nc2ccc(C(=O)Nc3cccc(OCC(=O)N(C)C)c3)cn2c1N(C)Cc1cc2ccccc2s1 | inactive: 6.58% |
| CCN1CCc2c(C#N)c(N3CCOCC3)nc(NCc3ccccc3)c2C1 | inactive: 27% |
| Cc1nccn1CCC(=O)Nc1ccc(Cl)cc1 | inactive: 4.41% |
| Fc1ccc(Br)cc1/C=N/n1cnnc1 | inactive: 6.6% |
| Cc1ccc(N(CC2CO2)S(=O)(=O)c2ccc([N+](=O)[O-])cc2)cc1 (stereo unspecified) | inactive: 12.2% |
| Cc1occc1-c1nnc(-c2cc([N+](=O)[O-])cc([N+](=O)[O-])c2)o1 | inactive: 3.34% |
| CCCN1CCN(C(=O)Cn2nc(C)n3c(cc4c(OC)cccc43)c2=O)CC1 | inactive: -2.08% |
| CCOC(=O)/C(C#N)=C/Nc1ccccc1NS(=O)(=O)c1cccc(C(C)=O)c1 | inactive: 6.37% |

| SMILES | growth rescue (activation) |
| --- | --- |
| O=C(NCCc1ccccc1)/C(=N\O)c1ccccc1 | inactive: 7.38% |
| O=C(NCc1cccc(F)c1)Nc1nnc([C@H]2C[C@H](O)[C@@H](CO)O2)s1 | inactive: 3.07% |
| O=S(=O)(Nc1nc2ccccc2nc1NCC1CCCO1)c1ccc(F)cc1 (stereo unspecified) | inactive: 2.54% |
| Cc1c(C)n(Cc2ccccc2)c2ncnc(NCCO)c12 | inactive: 6.82% |
| Nc1c(C(=O)OCC(=O)NCc2ccccc2)[nH]c(=O)[nH]c1=O | inactive: 25.5% |
| C#CCOc1c(Br)cc(/C=C2/C(=O)ON=C2C)cc1OC | inactive: 2.96% |
| COc1ccc(N=Cc2c(O)n(-c3cccc(C)n3)c(=O)c3ccccc23)cc1 | inactive: 19.4% |
| COc1ccc(CNC(=O)c2ccccc2NS(C)(=O)=O)cc1 | inactive: 7.47% |
| N/C(=N\OC(=O)c1cccs1)c1ccccc1 | inactive: 16.5% |
| Cc1ccc(NC(=O)/C=C/c2ccc(S(=O)(=O)N3CCOCC3)cc2)cc1S(=O)(=O)N(C)C | inactive: -3.13% |
| O=C(CCC(=O)Nc1ccccc1)NNC(=O)C(c1ccccc1)c1ccccc1 | inactive: 10.1% |
| Cc1nc2cc(NS(=O)(=O)c3ccccc3)ccc2n1C | inactive: 9.09% |
| CCn1c(SCC(=O)Nc2c(C)n(C)n(-c3ccccc3)c2=O)nc2c1c(=O)n(C)c(=O)n2C | inactive: 10.9% |
| COc1ccc(-n2c(SC(C)C(=O)Nc3ccc(NC(C)=O)cc3)nc3ccccc3c2=O)cc1OC (stereo unspecified) | inactive: -8.18% |
| O=C(COc1ccc(Cl)cc1Cl)Nc1cccnc1 | inactive: 27% |
| CCOC(=O)C1CCCN(C(=O)c2ccc(C(F)(F)F)nc2C)CC1 (stereo unspecified) | inactive: 15.5% |
| O=C(NC1CCCCC1)c1ccc(-n2cncn2)c([N+](=O)[O-])c1 | inactive: 6.73% |
| O=C(O)c1ccc2c(c1)C(=O)N(NC(=O)c1ccc(O)cc1)C2=O | inactive: -16.8% |
| CCCC(=O)N1CCCC(c2cc(C(=O)NCc3cccnc3)no2)C1 (stereo unspecified) | inactive: 8.78% |
| COc1ccc(C(=O)O/N=C/c2ccc(S(=O)(=O)c3ccc(Cl)cc3)nc2)cc1 | inactive: -9.54% |
| CCN(Cc1ccccc1)S(=O)(=O)c1cc(C(=O)NC(C)C2CC3CCC2C3)ccc1OC (stereo unspecified) | inactive: -7.45% |
| CN(CCC#N)C(=O)COc1ccc(Br)cc1Cl | inactive: 1.98% |

| SMILES | growth rescue (activation) |
| --- | --- |
| O=C(CN1CCCCCC1)NCc1ccccc1 | inactive: 5.61% |
| CCc1ccccc1NC(=O)N1CCC(NC(=O)C(Cc2ccccc2)NC(C)=O)CC1 (stereo unspecified) | inactive: 1.73% |
| Cc1nnc(SCC(=O)Nc2ccccc2)c2ccccc12 | inactive: 14% |
| CCOC(=O)c1ccc(S(=O)(=O)Nc2ccc(N3CCOCC3)cc2)cc1 | inactive: -5.76% |
| O=C(CN(c1ccccc1)S(=O)(=O)c1ccccc1)N1CCOCC1 | inactive: -7.45% |
| Cc1ccc(S(=O)(=O)N2CCOCC2)cc1C(=O)OCC(=O)N1CCCC1=O | inactive: -4.06% |
| COc1cc(C)c(S(=O)(=O)N2CCN=C2c2ccccc2)cc1C | inactive: 6.27% |
| Nn1c(COc2ccccc2)nc2ccccc2c1=O | inactive: 40.7% |
| COc1cc(C2NC(=O)NC(C)=C2C(=O)OCC2CCCO2)cc(OC)c1OC (stereo unspecified) | inactive: 0.965% |
| Cc1ccc(NC(=O)c2ccc(OC(=O)COc3cccc(Cl)c3)cc2)cc1 | inactive: 26.4% |
| Cc1ccc(NC(=S)N2CCCC(c3nc4ccccc4[nH]3)C2)cc1 (stereo unspecified) | inactive: 11% |
| COc1ccc(CNC(=O)N2CCN(S(=O)(=O)c3ccccc3F)CC2)cc1 | inactive: 15.6% |
| COc1ccc(OC)c(NC(=O)CC2SC(=Nc3ccc(F)cc3)N(CCC3=CCCCC3)C2=O)c1 (stereo unspecified) | inactive: 14.2% |
| O=c1cc(-c2ccc(O)cc2)oc2ccc(O)cc12 | inactive: -7.93% |
| O=C(/C=C/c1ccc(S(=O)(=O)N2CCOCC2)cc1)NCc1ccccc1Cl | inactive: -10.1% |
| COc1cc(C(=O)NNC(=O)c2cc(-c3ccccc3)n[nH]2)cc(OC)c1C | inactive: 1.48% |
| COc1ccc(C(=O)O)cc1S(=O)(=O)NC(C)C12CC3CC(CC(C3)C1)C2 (stereo unspecified) | inactive: 28% |
| CC(=O)Oc1cccc(C(=O)Nc2ccccc2C(=O)N2CCCC2)c1 | inactive: 18% |
| CN(C)Cc1cc2ccccc2c2c1COC2 | inactive: -16.7% |
| CCCS(=O)(=O)NC(=O)C1(C)CCN(C(=O)c2cc(C)n(C(C)(C)C)n2)C1 (stereo unspecified) | inactive: 2.13% |
| Cc1ccc(S(=O)(=O)Nc2nc(C)c(C(=O)N/N=C/c3ccccc3)s2)cc1 | inactive: 15.2% |
| COc1ccc(NC(=O)C2C(=O)N(CCO)C3(C)CC2c2ccccc2O3)cc1 (stereo unspecified) | inactive: 6.21% |

| SMILES | growth rescue (activation) |
| --- | --- |
| CCNC(=S)N1CCN(c2ccccc2OCC)CC1 | inactive: -7.51% |
| O=C1c2sc3nc4n(c(=O)c3c2CCC1Br)CCCCC4 (stereo unspecified) | inactive: 27.8% |
| Nn1cnc2c([nH]c3ccccc32)c1=O | inactive: 6.17% |
| COc1ccc(NC(=O)C2(C)CCN2C)cc1OC (stereo unspecified) | inactive: -5.34% |
| Cc1cc(=O)[nH]c(SCC(=O)Nc2ncc(S(=O)(=O)c3ccc([N+](=O)[O-])cc3)s2)n1 | inactive: 14.6% |
| Cc1ccccc1NC(=O)N1CCc2ccccc2C1 | inactive: 2.41% |
| CCOC(=O)c1ccccc1NC(=O)Cn1cnc2c(cnn2C(C)(C)C)c1=O | inactive: -4.54% |
| Cc1c(CCC(=O)O)c(=O)oc2cc(OCc3cccc(F)c3)ccc12 | inactive: 10.9% |
| O=S(=O)(c1ccc(-c2csc(Nc3ccc(F)cc3)n2)cc1)N1CCCC1 | inactive: 16.5% |
| Cc1cc(-c2nc3ncccc3o2)ccc1NC(=S)NC(=O)c1ccco1 | inactive: 14.7% |
| NS(=O)(=O)c1ccc(NC(=O)/C=C/c2cccc(Cl)c2)cc1 | inactive: -4.17% |
| COc1ccc(OC)c(-n2nnc(-c3nc(-c4ccc5c(c4)OCO5)no3)c2C)c1 | inactive: 20.2% |
| CCOC(=O)C1CCN(c2c(NCc3ccc(C(=O)N(C)Cc4ccccc4)cc3)c(=O)c2=O)CC1 | inactive: -0.503% |
| Cn1nc(C(F)(F)F)c(C#N)c1N1CCN(c2ccccc2F)CC1 | inactive: -1.03% |
| Cc1cc(=O)c2ccccc2n1Cc1ccccc1 | inactive: -1.08% |
| Cc1ccnn1CCC(=O)N1CCCC(CCC(=O)N2CCN(c3ccccn3)CC2)C1 (stereo unspecified) | inactive: 11.8% |
| CCOC(=O)c1c(NC(=O)CSc2nnc(C)c(=O)[nH]2)sc(C)c1-c1ccc(C)cc1 | inactive: -1.07% |
| CCOC(=O)/C=C1/SCC(=O)N1Cc1ccc(Br)cc1 | inactive: 6.95% |
